Values after ≈ are worked out from the molar mass of the structure shown. Values joined by “and” are separate entries in the source; they are usually repeats but may differ in a detail not shown here. Equal entries are not always repeated.
What was measured:
Assay in all cases: ≥ marks a high value that may be exact or a test limit, other limits are often not marked
[1] = test system: Pyricularia grisea KACC 40425
[2] = test system: Trichosporon beigelii KCTC 7707
[3] = test system: Fusarium oxysporum KACC 40902
[4] = test system: Acinetobacter baumannii b-02
[5] = test system: Proteus vulgaris
[6] = test system: Acinetobacter baumannii b-01
[7] = test system: Candida albicans KCTC 7965
[8] = test system: Candida albicans KCTC 7121
[9] = test system: Escherichia coli KCTC 1682
[10] = test system: Salmonella typhimurium KCTC 1926
[11] = test system: Staphylococcus aureus KCTC 1621
[12] = test system: Staphylococcus aureus CCARM 3570
[13] = test system: Aspergillus niger KCTC 6461
[14] = test system: Bacillus subtilis KCCM 11495
[15] = test system: Escherichia coli KCCM 11569
[16] = test system: Bacillus megaterium KCTC 1096
[17] = test system: Pseudomonas aeruginosa
[18] = test system: Staphylococcus epidermidis KCTC 1917
[19] = test system: Candida albicans KCTC 7729
[20] = test system: Acinetobacter baumannii b-03
[21] = test system: Staphylococcus aureus CCARM 3543
[22] = test system: Aspergillus terreus KCTC 6178
[23] = test system: Geotrichum candidum KACC 40354
[24] = test system: Candida albicans KCTC 7270
[25] = test system: Acinetobacter baumannii b-04
[26] = test system: Bacillus subtilis KCTC 3068
[27] = test system: Candida albicans KCTC 7728
[28] = test system: Cryptococcus neoformans KCCM 50544
[29] = test system: Bacillus subtilis KCTC 1918
[30] = test system: Pseudomonas aeruginosa KCTC 1637

Work on CC[C@H](C)[C@H](NC(=O)[C@H](CCCCN)NC(=O)[C@H](CCCCN)NC(=O)[C@H](Cc1ccccc1)NC(=O)[C@H](CC(C)C)NC(=O)[C@H](CCCCN)NC(=O)[C@H](Cc1c[nH]c2ccccc12)NC(=O)[C@@H](N)CCCCN)C(=O)N1CCC[C@H]1C(=O)N[C@@H](CCCCN)C(=O)N[C@@H](Cc1ccccc1)C(=O)N[C@@H](CC(C)C)C(=O)N[C@@H](Cc1cnc[nH]1)C(=O)N[C@@H](CC(C)C)C(=O)N[C@@H](C)C(=O)N[C@@H](CCCCN)C(=O)N[C@@H](CCCCN)C(=O)N[C@@H](Cc1ccccc1)C(N)=O [KWKLFKKIPKFLHLAKKF] yielded an MIC [1] of 2.46 µM (≈ 5.65 µg/mL), an MIC [2] of 1.23 µM (≈ 2.83 µg/mL) and an MIC [3] of 2.46 µM (≈ 5.65 µg/mL). It also gave an MIC [4] of 10.9 µM (≈ 25 µg/mL), an MIC [5] of 3.12 µM (≈ 7.19 µg/mL) and an MIC [6] of 2.72 µM (≈ 6.25 µg/mL). The MIC [7] was 19.7 µM (≈ 45.2 µg/mL), the MIC [8] was 0.435 µM (≈ 1 µg/mL) and the MIC [9] was 2 µM (≈ 4.6 µg/mL). For the same molecule, the MIC [10] was 1 µM (≈ 2.3 µg/mL), the MIC [11] was 2 µM (≈ 4.6 µg/mL) and the MIC [12] was 9.83 µM and 27.8 µM and 19.7 µM. The MIC [13] was 27.8 µM (≈ 64 µg/mL), the MIC [14] was 0.615 µM (≈ 1.41 µg/mL) and the MIC [15] was 0.435 µM (≈ 1 µg/mL). It also gave an MIC [16] of 0.78 µM (≈ 1.79 µg/mL), an MIC [17] of 10.9 µM (≈ 25 µg/mL) and an MIC [18] of 1 µM (≈ 2.3 µg/mL). The MIC [19] was 1.23 µM (≈ 2.83 µg/mL), the MIC [20] was 5.43 µM (≈ 12.5 µg/mL) and the MIC [21] was 9.83 µM (≈ 22.6 µg/mL). The MIC [22] was 27.8 µM (≈ 64 µg/mL), the MIC [23] was 4.92 µM (≈ 11.3 µg/mL) and the MIC [24] was 4.92 µM (≈ 11.3 µg/mL). It also gave an MIC [25] of 5.43 µM (≈ 12.5 µg/mL), an MIC [26] of 1 µM (≈ 2.3 µg/mL) and an MIC [27] of 2.46 µM (≈ 5.65 µg/mL). The MIC [28] was 19.7 µM (≈ 45.2 µg/mL), the MIC [29] was 0.78 µM (≈ 1.79 µg/mL) and the MIC [30] was 1 µM (≈ 2.3 µg/mL).
